{
  "source": "PubChem BioAssay AID1645886",
  "about": "(National Center for Advancing Translational Sciences (NCATS), 2021)",
  "note": "Several values for one entry are separate records, joined by “and”; a condition that tells them apart may be missing. Equal values may be shown once. About 260 (1.6%) of roughly 16,000 compounds were called active. Inconclusive means that the source gave no clear call. Such entries were picked first, then a sample of the others. Calls follow the shape of the dose curve; as a rule, active = well fitted inhibition curve with a large enough effect; inconclusive = small, poorly fitted or top-dose-only effect; inactive = no such curve, though single readings can be large or run the other way. A potency beside an inconclusive call is a rough fit, not a confirmed value. Potency is read from the fitted curve at half-maximal effect; tags tell the direction and shape of the fitted curve.",
  "data": [
    {"biological_target": "Rap guanine nucleotide exchange factor 4 (Homo sapiens) (UniProt Q8WZA2)", "sequence (Q8WZA2 whole entry, looked up)": "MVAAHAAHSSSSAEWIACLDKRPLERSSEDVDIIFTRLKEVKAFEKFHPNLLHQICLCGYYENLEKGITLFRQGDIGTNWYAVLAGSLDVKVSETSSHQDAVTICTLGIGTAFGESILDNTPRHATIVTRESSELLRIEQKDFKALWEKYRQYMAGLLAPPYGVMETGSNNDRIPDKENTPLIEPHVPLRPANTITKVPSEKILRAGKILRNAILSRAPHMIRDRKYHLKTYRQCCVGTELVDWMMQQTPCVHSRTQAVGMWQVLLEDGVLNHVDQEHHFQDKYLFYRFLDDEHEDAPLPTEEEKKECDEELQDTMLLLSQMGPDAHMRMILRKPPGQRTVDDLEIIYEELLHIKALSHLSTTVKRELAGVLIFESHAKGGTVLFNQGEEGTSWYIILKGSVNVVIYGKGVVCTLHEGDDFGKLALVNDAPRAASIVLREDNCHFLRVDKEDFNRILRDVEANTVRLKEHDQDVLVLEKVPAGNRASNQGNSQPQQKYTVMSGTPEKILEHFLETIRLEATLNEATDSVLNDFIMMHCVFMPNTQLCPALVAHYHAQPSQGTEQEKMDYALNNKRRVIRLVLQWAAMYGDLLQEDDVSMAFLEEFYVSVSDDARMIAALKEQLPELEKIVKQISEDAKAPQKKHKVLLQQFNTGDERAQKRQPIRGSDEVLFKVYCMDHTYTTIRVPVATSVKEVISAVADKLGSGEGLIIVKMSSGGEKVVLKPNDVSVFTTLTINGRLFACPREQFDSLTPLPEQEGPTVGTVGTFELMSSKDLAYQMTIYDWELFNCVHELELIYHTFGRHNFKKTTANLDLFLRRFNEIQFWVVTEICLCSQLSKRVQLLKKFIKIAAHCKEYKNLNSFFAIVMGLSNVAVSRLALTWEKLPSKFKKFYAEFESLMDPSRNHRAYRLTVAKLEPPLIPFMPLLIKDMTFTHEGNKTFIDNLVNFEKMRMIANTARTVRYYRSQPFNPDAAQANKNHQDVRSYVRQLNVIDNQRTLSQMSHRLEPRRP", "assay": "Validation qHTS for antagonist of cAMP-regulated guanine nucleotide exchange factor 4 (EPAC2); also: nearly all actives have a fitted effect of over 40% in size", "details": "EPAC2 Rap1B BODIPY-GDP exchange, fluorescence; activity, negative = inhibition: at 112 µM (top of the series)", "in_short": "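Normalized against a 6.5 mM cAMP agonist control, compounds were tested on 100 nM EPAC2 exchanging Rap1B-bound BODIPY-GDP (250 nM) for 50 uM GDP. Fluorescence drop (ex 480, em 540 nm) was tracked at room temperature over 30 min at 5-min intervals.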", "values": [
      {"molecule": "CCC(=O)N[C@@H]1Cc2ccccc2[C@@H](c2ccccc2)C1", "Potency": "inconclusive: 22.4 µM [inhibitor, full curve]"},
      {"molecule": "C[C@@H]1CCC(=O)N(C[C@@H](C)CSc2ccccc2)CC1", "Potency": "inconclusive: 79.4 µM [inhibitor, partial curve, poor fit]"},
      {"molecule": "COC(=O)c1c(C)cc(OC)cc1O", "Potency": "inconclusive: 44.7 µM [inhibitor, partial curve, poor fit]"},
      {"molecule": "O=C1c2ccccc2C(=O)C1c1ccc(Br)cc1", "Potency": "inconclusive: 11.2 µM [inhibitor, partial curve]"},
      {"molecule": "Cc1nc2ccccc2nc1CN1CCOc2ccc(C3(O)CCN(c4ccccc4F)CC3)cc2C1", "Potency": "inactive"},
      {"molecule": "O=C(c1ccco1)N1CCC2(CC1)CN(c1ccccn1)C2", "Potency": "inactive"},
      {"molecule": "O=S(=O)(O)Oc1ccc(C(c2ccc(OS(=O)(=O)O)cc2)c2ccccn2)cc1", "Potency": "inactive"},
      {"molecule": "Cc1cccc(CNc2ccnc(-c3ccc(C(=O)N(C)C)cc3)n2)c1", "Potency": "inconclusive: 70.8 µM [inhibitor, partial curve, poor fit]"},
      {"molecule": "CCCC(=O)O[C@]1(C(=O)COC(=O)CC)[C@@H](C)C[C@H]2[C@@H]3CCC4=CC(=O)C=C[C@]4(C)[C@@]3(F)[C@@H](O)C[C@@]21C", "Potency": "inactive"},
      {"molecule": "CC1=C(C(=O)OC(C)C)[C@@H](c2cccc3nonc23)C([N+](=O)[O-])=C(C)N1", "Potency": "inactive"},
      {"molecule": "COC(=O)c1cc(CNC(=O)c2ccccn2)cc(NC(=O)c2ccccc2OC)c1", "Potency": "inconclusive: 50.1 µM [inhibitor, partial curve]"},
      {"molecule": "C/C=C1\\NC(=O)[C@H]2CSSCC/C=C/[C@H](CC(=O)N[C@H](C(C)C)C(=O)N2)OC(=O)C(C(C)C)NC1=O", "note": "(stereo not given in full)", "Potency": "inactive"},
      {"molecule": "Cc1cccc(CNc2nc(-c3ccc4c(c3)OCO4)nc3ccccc23)c1", "Potency": "inconclusive: 56.2 µM [inhibitor, partial curve, poor fit]"},
      {"molecule": "CC(C)OC(=O)C(C)(C)Oc1ccc(C(=O)c2ccc(Cl)cc2)cc1", "Potency": "inconclusive: 50.1 µM [inhibitor, partial curve, poor fit]"},
      {"molecule": "O=C(NCc1ccon1)c1ccc(-c2csc3ccccc23)nc1N1CCC(N2CCCC(CO)C2)CC1", "note": "(stereo not given)", "Potency": "inconclusive: 89.1 µM [inhibitor, single point]"},
      {"molecule": "CCc1c(C)c2ccccc2[nH]c1=O", "Potency": "inactive"},
      {"molecule": "CCOc1ccc2nc(S(N)(=O)=O)sc2c1", "Potency": "inconclusive: 79.4 µM [inhibitor, partial curve, poor fit]"},
      {"molecule": "CC(C)c1nc(N(C)S(C)(=O)=O)nc(-c2ccc(F)cc2)c1/C=C/C(O)CC(O)CC(=O)O", "note": "(stereo not given)", "Potency": "inconclusive: 39.8 µM [inhibitor, full curve]"},
      {"molecule": "Cc1oc(-c2ccccc2NC(=O)c2ccccc2)nc1CNC(=O)c1c(-c2ccccc2)noc1C", "Potency": "inconclusive: 28.2 µM [inhibitor, single point]"},
      {"molecule": "NNc1nnc(NN)c2ccccc12", "Potency": "inactive"},
      {"molecule": "COc1cc2ncnc(Nc3cccc(Cl)c3)c2cc1OC", "Potency": "inconclusive: 79.4 µM [inhibitor, partial curve, poor fit] and inconclusive: 44.7 µM [inhibitor, partial curve, poor fit]"},
      {"molecule": "O=C(NCc1ccccn1)c1cnn(-c2nccc(-c3cccs3)n2)c1C1CC1", "Potency": "inconclusive: 100 µM [inhibitor, single point]"},
      {"molecule": "N#C/C(=C\\c1ccc(O)c(O)c1)C(=O)NCCCc1ccccc1", "Potency": "inconclusive: 56.2 µM [inhibitor, partial curve]"},
      {"molecule": "Cc1nc(NCc2c(C)nn(C)c2Cl)sc1-c1ccn(CC2COc3ccccc3O2)n1", "note": "(stereo not given)", "Potency": "inconclusive: 50.1 µM [inhibitor, partial curve, poor fit]"},
      {"molecule": "CC1CCN=C(N)S1", "note": "(stereo not given)", "activity, negative = inhibition": "inconclusive: -37.3% [inhibitor]"},
      {"molecule": "C=C[C@](C)(O)CCC1C(=C)CCC2[C@@](C)(CO)CCC[C@@]12C", "note": "(stereo not given in full)", "Potency": "inconclusive: 70.8 µM [inhibitor, single point]"},
      {"molecule": "COC(=O)N1CCC[C@@]2(CCN(C(c3ccccc3)c3ccccc3)C2)C1", "Potency": "inconclusive: 50.1 µM [inhibitor, partial curve]"},
      {"molecule": "CCC1COCCS(=O)(=O)N1Cc1ccccc1F", "note": "(stereo not given)", "Potency": "inconclusive: 100 µM [inhibitor, partial curve, poor fit]"},
      {"molecule": "O=C(c1cnccn1)N1CCC[C@@]2(CCN(c3cccc(-c4ccccc4)c3)C2)C1", "Potency": "inconclusive: 35.5 µM [inhibitor, full curve, poor fit]"},
      {"molecule": "O=C(c1cccc(F)c1)N1CCC2(CC1)CN(c1ccccc1)C2", "Potency": "inconclusive: 44.7 µM [inhibitor, partial curve, poor fit]"},
      {"molecule": "OC1(c2cccnc2)CCN(Cc2ccc3c(c2)CN(Cc2cccc(C(F)(F)F)c2)CCO3)CC1", "Potency": "inactive"},
      {"molecule": "O=C(Nc1ccc(Cl)cc1Cl)[C@@H]1CC=C[C@@H]2CCN(C3CC3)C(=O)[C@@H]21", "Potency": "inconclusive: 6.31 µM [inhibitor, full curve, poor fit]"},
      {"molecule": "CC1=CC(=C(c2ccc(N)cc2)c2ccc(N)cc2)C=CC1=N", "Potency": "inconclusive: 100 µM [inhibitor, single point]"},
      {"molecule": "COc1ccc(SCCN2CC[C@@H](C(C)(C)C)CCC2=O)cc1", "Potency": "inconclusive: 56.2 µM [inhibitor, partial curve, poor fit]"},
      {"molecule": "C=CCN(c1ccc(Br)cc1C(=O)OC)S(C)(=O)=O", "Potency": "inconclusive: 50.1 µM [inhibitor, partial curve, poor fit]"},
      {"molecule": "O=C(c1cccc(F)c1)N1CCC2(CC1)CN(c1cccc(-c3ccccc3)c1)C2", "Potency": "inconclusive: 39.8 µM [inhibitor, partial curve, poor fit]"},
      {"molecule": "O=C(c1cc(C(F)(F)F)cc(C(F)(F)F)c1)N1CCC2(CCCN(Cc3nccs3)C2)CC1", "Potency": "inconclusive: 50.1 µM [inhibitor, partial curve]"},
      {"molecule": "O=C(Nc1ccc(Cl)cc1Cl)[C@@H]1CC=C[C@@H]2CCN(Cc3ccccc3)C(=O)[C@@H]21", "Potency": "inconclusive: 89.1 µM [inhibitor, single point]"},
      {"molecule": "NC(Cc1ccccc1)C(=O)O", "note": "(stereo not given)", "Potency": "inactive"},
      {"molecule": "CCCCCC(O)c1cccc(OCc2ccc3ccccc3n2)c1", "note": "(stereo not given)", "Potency": "inconclusive: 56.2 µM [inhibitor, partial curve, poor fit]"}
    ]}
  ]
}
